± gives the standard deviation of the averaged measurements. Over roughly 1,900 compounds, “CD40L-induced NF-kB luciferase activity, plate-corrected, relative to DMSO (0) and IKK inhibitor VII (-100) controls” has its median near 0.032; the lowest 2% begin near -26. The list shows a part of the results.

For this test, the system named is BL2-NFkB-Luc. In words: CD40L-induced NF-kB luciferase activity, plate-corrected, relative to DMSO (0) and IKK inhibitor VII (-100) controls (% normalized activity); higher = more NF-kB reporter activity (less inhibition). To be noted: 9.4 µM; stimulus: tCD40L 64 ng/ml; 4.5 h. Here is the method:
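BL2 B cells with a stable NF-kB response-element luciferase reporter (BL2-NFkB-Luc), 384-well. Cells were pre-incubated with compound at 9.4 uM for 1 h at 37 C, then stimulated with 64 ng/ml trimerized CD40L for 4.5 h; luciferase was read with Steady-Glo. Signal was normalised per plate in Genedata (median DMSO neutral control = 0, median IKK inhibitor VII at 50 uM = -100) with Assay Median plate-pattern correction; duplicate plates.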
Regarding `CC(C)c1ccc(NC(=O)CNS(=O)(=O)c2ccc(F)cc2)cc1`, the “CD40L-induced NF-kB luciferase activity” value is 0.331 ± 3.1.

On to `CSCCC(NC(=O)/C(=C/c1ccc2c(c1)OCO2)NC(=O)c1cccc([N+](=O)[O-])c1)C(=O)O` (configuration not stated), for which the “CD40L-induced NF-kB luciferase activity” value was -2.59 ± 8.9. For `CCc1cn([C@H]2C[C@H](O)[C@@H](CO)O2)c(=O)[nH]c1=O` the value was -9.17 ± 10; for `CCOC(=O)C1C(=O)CC(C)(O)C(C(=O)OCC)C1/C=C/c1ccccc1` (configuration not stated), -3.18 ± 2.8; for `O=[N+]([O-])c1cccc2cn[nH]c12`, 4.15 ± 5.7. On to `CN1CCc2c(n(CC(O)CN(CCO)CCO)c3ccccc23)C1=O` (configuration not stated), for which the “CD40L-induced NF-kB luciferase activity” value stood at 0.276 ± 3. The result for `O=C(Nc1ccccc1C(=O)N1CCCCCC1)c1ccccc1Cl` reads -0.549 ± 0.96; that for `CCCNCC(O)COc1ccccc1C(=O)CCc1ccccc1` (configuration not stated), -5.3 ± 4.3; that for `COC(=O)c1ccc(-c2ncc(-c3cccc4ccccc34)o2)cc1`, 10.3 ± 4.3. In the case of `COc1cccc(NC(=O)C2CC(=O)OC23CCOC(C)(C)C3)c1` (configuration not stated), the “CD40L-induced NF-kB luciferase activity” value came out at 4.32 ± 4.7. The result for `CC12CCC(C(=O)NCc3ccccn3)(OC1=O)C2(C)C` (configuration not stated) reads 3.06 ± 4.9; that for `COc1ccc(NC(=O)Nc2ccc(C(C)C)cc2)cc1`, 13.4 ± 0.33. The result for `CCOC(=O)N1CCN(Cc2nc(Cc3cccc(F)c3)no2)CC1` reads 1.41 ± 2.9; that for `O=C1[C@@H]2[C@H](Cc3ccc(O)cc3)N[C@]3(C(=O)Nc4ccccc43)[C@@H]2C(=O)N1c1ccc(F)cc1`, -2.13 ± 3.5.

`C[C@H]1C[C@@H]2[C@H]([C@@H](O)C[C@@]3(C)[C@H]2CC[C@]3(O)C(=O)CO)[C@@]2(C)C=CC(=O)C=C12`: the “CD40L-induced NF-kB luciferase activity” value was -35.94 ± 0.26. The result for `CC(=O)O[C@]1(C(C)=O)CC[C@H]2[C@@H]3C[C@H](C)C4=CC(=O)CC[C@]4(C)[C@H]3CC[C@@]21C` reads -12.6 ± 2.8; that for `O=C(O)c1cc(-c2ccccc2)nc2ccccc12`, -0.943 ± 1.9; that for `Cc1ccc(S(=O)(=O)N2CCC(C(=O)N[C@@H](C)C(=O)NC3CCS(=O)(=O)C3)CC2)cc1` (some centres not stated), 1.22 ± 6.4.

On to `NNC(=O)c1cc(O)c(O)c(O)c1`, for which the “CD40L-induced NF-kB luciferase activity” value is -10.4 ± 0.34. On to `Nc1ccc2[nH]ncc2c1`, for which the “CD40L-induced NF-kB luciferase activity” value is 1.09 ± 0.57.

On to `COC(=O)CSc1nc2ccc(N)cc2s1`, for which the “CD40L-induced NF-kB luciferase activity” value turned out to be 0.507 ± 4.2.

For `O=C(CCc1c[nH]c2ccccc12)NCc1ccco1`, the “CD40L-induced NF-kB luciferase activity” value is -0.871 ± 1.7. Regarding `CN(C)c1nc(N(C)C)nc(N(C)C)n1`, the “CD40L-induced NF-kB luciferase activity” value is 5.48 ± 8.4. For `Cc1ccc2nc(C)c3c(c2c1)OC(C(C)(Cl)Br)C3` (configuration not stated) the value was -6.39 ± 6.3; for `COc1ccc(NC(=O)C2CSC3c4ccccc4C(=O)N23)cc1` (configuration not stated), 0.88 ± 2.1. As for `COc1ccc(NC2=C(Cl)C(=O)N(c3ccccc3)C2=O)c(OC)c1`, the “CD40L-induced NF-kB luciferase activity” value came to 0.117 ± 8.5. The result for `COc1ccc(CCN(C)CC(=O)Nc2cc(C)nc3ccccc23)cc1OC` reads -1.3 ± 3.8. Take `CCN(CCCCCN(C)C)Cc1cc2ccccc2o1`: the “CD40L-induced NF-kB luciferase activity” value is 2.26 ± 4.4. The result for `CN(C)CC/C=C1\c2ccccc2Sc2ccc(Cl)cc21` reads -5.29 ± 14. The result for `CCOc1cccc(N2C(=O)CC(N(CCc3ccc(OC)c(OC)c3)C(=O)CC)C2=O)c1` (configuration not stated) reads 0.027 ± 3.1; that for `Cc1ccc(C(=O)N2CC3(C(C)C)CN(C(=O)c4ccc(C)cc4)CC(C(C)C)(C2)C3=O)cc1`, 2.71 ± 3.2; that for `CCC(=O)O[C@]1(C(=O)CCl)[C@@H](C)C[C@H]2[C@@H]3CCC4=CC(=O)C=C[C@]4(C)[C@@]3(F)[C@@H](O)C[C@@]21C`, -21.44 ± 0.014.

In the case of `Cc1c(O)c(=O)ccn1C`, the “CD40L-induced NF-kB luciferase activity” value was 4.22 ± 1.5.

With `Cc1nc(-c2coc3c(CN(C)C)c(O)ccc3c2=O)cs1`, the “CD40L-induced NF-kB luciferase activity” value stood at 1.46 ± 3.9. The result for `N#Cc1c2c(c(-c3ccccc3)[nH]c1=O)CCCC2` reads -1.45 ± 2.6. The result for `CC(C)c1ccc(/C=C/C(=O)O)cc1` reads -0.663 ± 2.9; that for `COc1ccc(C2CNC(=O)C2)cc1OC1CCCC1` (configuration not stated), -2.32 ± 5.5; that for `COc1cccc2c(=O)c(C/C=C(/C)Cl)c(C)[nH]c12`, 10.1 ± 0.58. With `O=C(Nc1ncc2c(n1)CC(c1ccco1)CC2=O)c1ccco1` (configuration not stated), the “CD40L-induced NF-kB luciferase activity” value stood at 2.39 ± 2.4. Regarding `COc1ccc(-c2[nH]ncc2C=O)cc1OC`, the “CD40L-induced NF-kB luciferase activity” value is 0.26 ± 3.5.

For the compound `COC(=O)c1[nH]c2ccc(C)cc2c1NC(=O)CN1CCc2cc(OC)c(OC)cc2C1`, the “CD40L-induced NF-kB luciferase activity” value is -5.22 ± 6.4. The result for `COc1ccc(-c2noc(-c3ccccc3-c3ccccc3)n2)cc1` reads 3.72 ± 0.69; that for `Cc1ccc(-n2cc(CNCCN3CCOC3=O)c(-c3ccc(F)cc3)n2)cc1`, 3.73 ± 12; that for `COc1ccc(C(=O)C2CCCCC2=O)cc1` (configuration not stated), 8.73 ± 2.5. For `CCn1c(SCC(=O)c2ccccc2)nc2ccccc2c1=O` the value was 2.63 ± 4; for `Cc1ccc(C(=O)Nc2ccccc2C(=O)NC(C(=O)O)C(C)C)cc1` (configuration not stated), 34.1 ± 2. For `O=C(CCCn1c(=O)oc2ccccc21)N1CCN(c2ccc(F)cc2)CC1` the value was -1.53 ± 2.2; for `Cn1c2[n+](c3ccc(Cl)cc3c1=O)Cc1ccccc1-2`, 3.78 ± 1.5; for `O=C(NCCC(c1ccccc1)c1ccco1)c1cccs1` (configuration not stated), 24.9 ± 2.2.

Consider `CC(=O)Oc1cc2oc(=O)cc(C)c2cc1OC(C)=O`, for which the “CD40L-induced NF-kB luciferase activity” value is -2.87 ± 1.3.

For `CC(=O)O[C@H]1C(=O)[C@@]2(C)[C@H]([C@H](OC(=O)c3ccccc3)[C@]3(O)C[C@H](OC(=O)[C@H](O)C(NC(=O)c4ccccc4)c4ccccc4)C(C)=C1C3(C)C)[C@]1(OC(C)=O)CO[C@@H]1C[C@@H]2O` (some centres not stated), the “CD40L-induced NF-kB luciferase activity” value was -33.4 ± 1.3. The result for `COc1ccc(CNCCC2(C(C)C)CCOC(C)(C)C2)cc1` (configuration not stated) reads 1.86 ± 0.35.
